Among all 420,000 compounds or so, about 50,000 (12%) were called active. This list was built around the results that the source calls inconclusive (neither active nor inactive); the mix of calls is not that of the screen. The call rests on the fitted dose curve; in most records, active means well fitted inhibition curve with a large enough effect; inconclusive means small, poorly fitted or top-dose-only effect; inactive means flat fitted curve, though single readings scatter. Potencies of inconclusive entries are left out as doubtful fits.
Assay: qHTS for Inhibitors of human tyrosyl-DNA phosphodiesterase 1 (TDP1): qHTS in cells in presence of CPT; further: nearly all actives have a fitted effect of over 55% in size
Conditions: chicken DT40 Tdp1-/-;hTDP1 cells + 20 nM CPT, ATP luminescence, 48 h; activity change, negative = growth inhibition: at 46.2 µM (top of the series) unless noted
Procedure, shortened: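 Chicken DT40 Tdp1-/- cells stably complemented with human TDP1 were seeded at 400 cells/well in medium containing 20 nM camptothecin, exposed to pin-transferred compounds, and grown at 37 °C for at least 48 hr. Viability was read as ATP luminescence.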
On the % scale 0 is the no-effect control and ±100 the full control effect; potency means the concentration at half of the fitted maximal effect; tags describe the fitted curve by direction and shape.

Which Potency does the source give for `CCn1c(=O)cc(SCC(=O)Nc2cccc(C)n2)c2ccccc21` here?
Its Potency is inconclusive [inhibitor, single point].

Which Potency does the source give for `O=C1N=C2N(CCN3CCCCC3)c3ccccc3N2/C1=C\c1ccc([N+](=O)[O-])s1` here?
Its Potency is active: 9.2 µM.

For `Cc1c(Br)cnn1C(C)C(=O)N1CCN(c2ccccc2F)CC1` (stereo not drawn), which Potency is on record?
Its Potency is inconclusive [inhibitor, single point].

With `CCC1CCCCN1CCCNC(=O)c1[nH]c2ccccc2c1Sc1ccc(Cl)cc1` (stereo not drawn) as the compound, how does the Potency read?
Its Potency is inconclusive [inhibitor, single point].

Which Potency does the source give for `CC(C)c1ccc(NC(=S)NC2CC3C=CC2C3)cc1` (stereo not drawn) here?
Its Potency is active: 14.6 µM.

For `O=C(CSc1nnc(SCc2ccc(Cl)cc2)s1)N1CCN(C(=O)c2ccco2)CC1`, which activity change, negative = growth inhibition is on record?
Its activity change, negative = growth inhibition is inconclusive: -36.6% [inhibitor].

With `CCOC(=O)N1CCN(Cc2nc(Cc3cccc(C(F)(F)F)c3)no2)CC1` as the compound, how does the Potency read?
The Potency was inconclusive [inhibitor, single point].

For `NC(=O)C1CCN(S(=O)(=O)c2cccc(S(=O)(=O)N3CCCCC3)c2)CC1`, which “activity change, negative = growth inhibition” value is on record?
The value was inactive: -4.22%.

Which Potency does the source give for `CS(=O)(=O)N(CC(=O)N1CCN(c2cccc(Cl)c2)CC1)c1cccc(F)c1` here?
Its Potency is inconclusive [inhibitor, partial curve].

With `CC(C)Oc1ccc(C(=O)NCc2cccs2)cc1` as the compound, how does the Potency read?
Its Potency is inconclusive [inhibitor, single point].

With `Cc1ccc(N(Cc2ccccc2O)C(=O)c2ccccc2F)cc1` as the compound, how does the Potency read?
The Potency was inconclusive [inhibitor, partial curve].

With `O=C(N/N=C/c1ccc(F)cc1)c1cc(-c2ccc3c(c2)OCO3)n[nH]1` as the compound, how does the “activity change, negative = growth inhibition” value read?
The value was inactive: 15.1%.

For `C=CCNc1ncnc2c1ncn2[C@H]1CN(Cc2ccc(-c3ccccc3)cc2)C[C@@H](CO)O1`, which Potency is on record?
The Potency was active: 16.4 µM.

Which Potency does the source give for `C[C@@H]1CC=C[C@@H]2[C@H]1C(=O)N(Cc1ccccc1)[C@H]2c1cccc(Br)c1` here?
The Potency was inconclusive [inhibitor, single point].

For `CCc1ccc(CN(C)C(=O)CCc2nnc(CCc3cccc(OC)c3)o2)nc1`, which Potency is on record?
The Potency was inconclusive [inhibitor, single point].

For `CC(=O)OCC1OC(n2cnc3c(Cl)nc(Cl)nc32)C(OC(C)=O)C1OC(C)=O` (stereo not drawn), which Potency is on record?
The Potency was inconclusive [inhibitor, single point].

For `CC(CCC(=O)O)C1CCC2C3C(O)C[C@@H]4CC(O)CC[C@@]4(C)C3CC(O)[C@]12C` (stereo partly drawn), which “activity change, negative = growth inhibition” value is on record?
The value was inactive: -2.9%.

For `CS(=O)(=O)Nc1ccc(C(=O)NCCSC2CCCCC2)cc1`, which Potency is on record?
Its Potency is inconclusive [inhibitor, partial curve].

Which Potency does the source give for `Cc1cccc(Nc2nc(-c3cccs3)cs2)n1` here?
Its Potency is inconclusive [inhibitor, single point].

Which “activity change, negative = growth inhibition” value does the source give for `O=C(Cc1ccc2c(c1)OCCO2)N1CCN(c2ccccc2)CC1` here?
The value was inactive: -8.31%.

For `CC1CC1C(=O)N1CCN(S(=O)(=O)c2cc(C(F)(F)F)cc(C(F)(F)F)c2)CC1` (stereo not drawn), which Potency is on record?
The Potency was active: 16.4 µM.

For `O=C(COc1cc2oc(=O)c3c(c2cc1Cl)CCC3)NCCCN1CCOCC1`, which “activity change, negative = growth inhibition” value is on record?
Its value is inactive: -7.82%.

Which Potency does the source give for `Cc1ccc(-c2cn3nc(N4CCCC(C(=O)Nc5ccc(F)cc5)C4)sc3n2)cc1` (stereo not drawn) here?
Its Potency is active: 16.4 µM.

With `CCc1c(C)sc(NC(=O)c2cc(C)on2)c1C#N` as the compound, how does the Potency read?
The Potency was inconclusive [inhibitor, partial curve].

With `NS(=O)(=O)OCCCc1ccc(C(F)(F)F)cc1` as the compound, how does the Potency read?
Its Potency is inconclusive [inhibitor, partial curve, poor fit].

For `CC(C)c1ccc(CC(=O)N2CCC2(C)C(=O)NCc2cccc3ccccc23)cc1` (stereo not drawn), which Potency is on record?
Its Potency is inconclusive [inhibitor, single point].

With `Cc1ccc2sc(N3CCN(C(=O)CCS(=O)(=O)c4ccc(Cl)cc4)CC3)nc2c1C` as the compound, how does the Potency read?
The Potency was active: 4.11 µM.

Which Potency does the source give for `O=C(NCCc1ccc(F)cc1)C(=O)NCC(c1cccs1)S(=O)(=O)c1ccc(F)cc1` (stereo not drawn) here?
The Potency was inconclusive [inhibitor, single point].

For `CC(=O)c1ccc(N2CCN(C(=O)C3CCCN(c4ncnc5c4nc4n5CCCCC4)C3)CC2)cc1` (stereo not drawn), which Potency is on record?
The Potency was active: 14.6 µM.

For `Cc1c(C)n(Cc2ccccc2)c2ncnc(NCCN(C)C)c12`, which Potency is on record?
Its Potency is inconclusive [inhibitor, single point].

With `Nc1nc2c(Br)ccc(Br)c2cc1C(=O)NCCc1ccccc1` as the compound, how does the Potency read?
Its Potency is inconclusive [inhibitor, single point].

Which Potency does the source give for `Cc1ccnc(N2CCC(C(=O)Nc3ccc4c(c3)CCC4)CC2)n1` here?
Its Potency is inconclusive [inhibitor, single point].

For `CCC(Sc1nc2ncccc2[nH]1)C(=O)Nc1cccc(OC)c1` (stereo not drawn), which Potency is on record?
Its Potency is inconclusive [inhibitor, single point].

Which Potency does the source give for `CCCc1ccc2oc(C(=O)N3CCC(C(N)=O)(N4CCCCC4)CC3)c(C)c2c1` here?
The Potency was inconclusive [inhibitor, single point].

Which Potency does the source give for `COc1ccc2nc(N3C(=O)/C(=C/c4ccccc4)NC3=S)sc2c1` here?
The Potency was inconclusive [inhibitor, single point].

With `Cc1cccc(C)c1NC(=O)C(c1ccnc2ccccc12)N1CCN(C)CC1` (stereo not drawn) as the compound, how does the Potency read?
The Potency was inconclusive [inhibitor, partial curve, poor fit].

Which “activity change, negative = growth inhibition” value does the source give for `O=C(CSc1nncs1)Nc1cccc2ccccc12` here?
The value was inactive: 3.71%.

With `CC(=O)COc1ccc2oc(=O)cc(-c3cc4ccccc4o3)c2c1` as the compound, how does the Potency read?
The Potency was inconclusive [inhibitor, single point].

With `Cc1cccnc1-c1cccc2c1OC(CNC(=O)C1CCCc3c1[nH]c1ccccc31)C2` (stereo not drawn) as the compound, how does the Potency read?
Its Potency is inconclusive [inhibitor, single point].

For `COC(=O)c1c(NC(=O)COc2ccc(Cl)cc2)sc2c1CC(C)(C)NC2(C)C`, which Potency is on record?
Its Potency is active: 2.91 µM.

Which Potency does the source give for `O=C(Nc1cc(S(=O)(=O)N2CCCCC2)ccc1Oc1ccccc1)C1=COCCO1` here?
The Potency was inconclusive [inhibitor, single point].

For `CCC(=O)Nc1ccc(OC)cc1OC`, which Potency is on record?
The Potency was inconclusive [inhibitor, single point].

For `Cc1cccc(N(C(=O)Cn2nnc(-c3ccc(C)o3)n2)C(C(=O)NC2CCCC2)c2ccncc2)c1` (stereo not drawn), which “activity change, negative = growth inhibition” value is on record?
The value was inactive: -14.6%.
